The source of these data is ChEMBL document CHEMBL1156829.

Structures are written as SMILES. Whole data set: some 5,400 compounds, median “IFI” near 2, cut for the highest 2% near 22. Some of the results follow.

This test is described as follows: NOVARTIS: Inhibition Frequency Index (IFI) - the number of HTS assays where a compound showed > 50% inhibition/induction, expressed as a percentage of the number of assays in which the compound was tested. It is filed as functional.
The compound `Cc1cc(C)c(CSC(=N)N)c(C)c1CSC(=N)N` returned an IFI of 0%.

In the case of `O=C(c1ccncc1)N1N=C(c2c(-c3ccccc3)c3cc(Br)ccc3[nH]c2=O)CC1c1ccccc1` (centres undefined), the IFI was determined as 4.11%.

For the compound `CCOC(=O)c1[nH]c2ccc(C)cc2c1N=NN(C)C`, the IFI stood at 5.46%.

`O=C(Nc1ccc(Br)cn1)c1ccc(Oc2cc(Oc3cccc(Cl)c3)cc([N+](=O)[O-])c2)cc1` displayed an IFI of 0%.

In the case of `CCCCCCCCC(=O)Nc1c(C)cccc1C`, the IFI was determined as 0.962%.

`COc1cc(-c2nc(-c3ccccc3)c(-c3ccc(O)cc3)[nH]2)cc(OC)c1O` had an IFI of 0%.

Compound `O=C1NN(c2ccccc2)C(=O)/C1=C1/C(=O)N(Cc2cccc3ccccc23)c2ccccc21` registered an IFI of 0%.

In turn, `O=C(O)[C@@H]1C[C@H](CP(=O)(O)O)CCN1` displayed an IFI of 0%.

The compound `Cc1ccccc1CNC(=O)c1oc2c(c1C)-c1[nH]ncc1CC2` displayed an IFI of 0%.

`Sc1nc2ccc3nsnc3c2[nH]1`: the IFI was determined as 0%.

On to `OC(CNCc1ccccc1)Cn1c2ccc(Br)cc2c2cc(Br)ccc21` (centres undefined), for which the IFI is 5.26%.

`Cc1ccc(-n2c(SCc3cccc4ccccc34)nc3sc4c(c3c2=O)CCN(C)C4)cc1` gave an IFI of 10%.

In the case of `Cc1c(C)n(Cc2ccc(F)cc2)c2ccc(C(=O)NCc3ccco3)cc12`, the IFI is 6.25%.

`CC(NC(=O)c1cnn2c(C(F)(F)F)cc(-c3ccc(Br)cc3)nc12)c1ccccc1` (centres undefined) gave an IFI of 3.23%.

As to `N=c1c2c(n(Cc3ccccc3)c3c1CCC3)CCCC2`, the IFI was 7.69%.

Consider `CN(CCCNc1ccnc2cc(Cl)ccc12)C(=O)CSc1ccccc1`, for which the IFI was found to be 3.74%.

`CCOC(=O)c1c(C)[n+](-c2ccc(C)cc2)c(CC)c2cc(OC)c(OC)cc12` gave an IFI of 2.29%.

Compound `COc1ccc(NS(=O)(=O)c2cccc(C(=O)Nc3ccccc3[N+](=O)[O-])c2)cc1` came in with an IFI of 0%.

`COc1ccc(C(=O)NCCc2ccc(C)cc2)cc1OC1CCN(C(C)=O)CC1` displayed an IFI of 0%.

Take `Cc1ccc(-c2cn3c([n+]2-c2ccccc2)SCC3)cc1`: the IFI stood at 5.18%.

For `COc1ccc2c(c1)c(C)cc[n+]2Cc1ccccc1`, the IFI worked out at 6.3%.

`Cc1ccc(NC(=O)N2CCN(CCN(Cc3ccc(F)cc3)C(=O)c3ccccc3C)CC2)cc1`: the IFI stood at 0%.

The compound `CCOC(=O)c1c(C)n(-c2ccccc2)c2ccc(OC(=O)c3ccccc3NC(=O)CC)cc12` registered an IFI of 2.78%.

`O=C1[C@@H]2CCCN2C(=O)C(c2ccc(Oc3ccccc3)cc2)N1CCc1ccccn1` (some centres undefined) had an IFI of 2.74%.

On to `COc1ccc(OC)c(-c2ccc(O)c(CNC3CCCCC3)c2)c1`, for which the IFI turned out to be 1.74%.

The compound `COc1cc(C=NNC(=O)c2ccc(C(=O)NN=Cc3ccc(O)c(OC)c3)cc2)ccc1O` came in with an IFI of 7.14%.

Consider `COc1ccccc1CNc1ncc(C(=O)NCCCN2CCCC2=O)c(NCCc2ccccc2)n1`, for which the IFI was found to be 1.94%.

Regarding `CCCCCCN(C(=O)c1ccc(CC)cc1)C(CC)c1nc2ccccc2c(=O)n1-c1cccc(Cl)c1` (centres undefined), the IFI worked out at 1.89%.

`O=C1Nc2ccccc2C1=Nc1ccccc1NS(=O)(=O)c1ccc2ccccc2c1`: the IFI was 7.69%.

`O=C(COC(c1ccccc1)c1cccnc1)NCCNC(=O)OCc1ccccc1` (centres undefined) displayed an IFI of 0.909%.

Compound `CCC(=O)N1CCc2cc(Br)cc(S(=O)(=O)N3CC(C)CC(C)C3)c21` (centres undefined) showed an IFI of 0%.

Compound `COC(=O)C1=C(C)NC2=C(C(=O)CC(c3ccccc3)C2)C1c1cc(C)sc1SC` (centres undefined) gave an IFI of 4.71%.

Regarding `CCN(CC)CCCN(Cc1cc2ccc(C)cc2[nH]c1=O)C(=S)Nc1cccc(Cl)c1`, the IFI came to 9.4%.

`COc1cccc(NC(=O)c2ccc(NCCCN3CC(C)CC(C)C3)c([N+](=O)[O-])c2)c1` (centres undefined) had an IFI of 7.69%.

For the compound `c1ccc(-c2cc(NCCCN3CCOCC3)nc(-c3ccccn3)n2)nc1`, the IFI came to 15.4%.

For the compound `CCN1C(C(=O)c2ccccc2)=C(Nc2c(C)n(C)n(-c3ccccc3)c2=O)c2ccccc2S1(=O)=O`, the IFI was 0%.

With `O=C(NCCCN1CCCC1=O)c1cnc(N2CCN(Cc3ccccc3)CC2)nc1NCCc1ccccc1`, the IFI was determined as 0.98%.

Compound `Cc1cc(-c2cn[nH]c2C2CCCN(C(=O)Cc3ccccc3F)C2)on1` (centres undefined) came in with an IFI of 0%.

For `COc1ccc(OC)c(-c2ccc(O)c(CNCC(C)C)c2)c1`, the IFI turned out to be 2.59%.

In turn, `CCOC(=O)c1sc2nc(N)c(C#N)c(-c3cccs3)c2c1N` had an IFI of 1.35%.

Turning to `O=C1NC(=S)N/C1=C\C=C\c1ccc([N+](=O)[O-])o1`, the IFI was found to be 10.6%.

`O=C(Cn1ccc(=NCc2ccccc2)cc1)c1ccc(Cl)cc1` returned an IFI of 4.41%.

The compound `CN(C)c1ccc(-c2nc(-c3ccc(-c4[nH]c(-c5ccc(N(C)C)cc5)nc4-c4ccccc4)cc3)c(-c3ccccc3)[nH]2)cc1` came in with an IFI of 12.5%.

Consider `CCCc1c(C(=O)OCC)c2cc(O)ccc2n1-c1ccc(OC)cc1`, for which the IFI was found to be 6.25%.

Take `CC(=O)OC(OC(C)=O)C12C=CC(O1)C1C(=O)N(c3cccc(C)c3)C(=O)C12` (centres undefined): the IFI worked out at 0%.

`CN1CCCN(C(=O)C2CC23CCN(Cc2ccc(N(C)c4ccccc4)cc2)CC3)CC1` (centres undefined) yielded an IFI of 15.4%.

Compound `O=C1CSc2nc3ccccc3n21` yielded an IFI of 0%.

Consider `CCOc1ccc2nc(C)cc(Nc3ccc(OC)cc3)c2c1`, for which the IFI was determined as 0%.

Turning to `COc1ccc(OC)c(-c2ccc(O)c(CN3CCC(c4ccccc4)CC3)c2)c1`, the IFI came out at 1.72%.

In the case of `Cc1cc(C)c2c(c1)c(-c1ccccc1)c(-c1ccccc1)n2CC(O)Cn1cnc(-c2ccccc2)c1-c1ccccc1` (centres undefined), the IFI was determined as 2.3%.

In turn, `FC(F)(F)c1ccccc1CN1CCc2nc(N3CCCCC3)sc2C1` registered an IFI of 9.86%.

In turn, `CC(C)CNCc1cc(-c2ccc(F)cc2)ccc1O` registered an IFI of 0.98%.

`Oc1ccc(C=NN=C(Nc2ccccn2)c2ccccn2)c(O)c1` had an IFI of 23.1%.

Consider `CC1(C)CN=C(N2CCN(CC(O)COc3ccc(OCC(O)CN4CCN(C5=NCC(C)(C)S5)CC4)cc3)CC2)S1` (centres undefined), for which the IFI amounted to 7.69%.

Take `c1ccc(Cc2cc[n+](Cc3ccccc3)cc2)cc1`: the IFI was 0%.

Consider `O=C1C(N2CCCCC2)=C(N2CCOCC2)C(=O)c2ccccc21`, for which the IFI was determined as 7.69%.

`CC(Nc1ccccc1)C(=O)Nc1cc(C(F)(F)F)ccc1Cl` (centres undefined) displayed an IFI of 7.5%.

Consider `COc1ccc(CCNc2nc(NCCCN3CCCC3)ncc2C(=O)NCC(C)C)cc1OC`, for which the IFI turned out to be 0.952%.

`O=C(/C=C/c1ccccc1)c1c(-c2ccccc2)c2cc([N+](=O)[O-])ccc2[nH]c1=O` had an IFI of 7.14%.

`O=C(NC(c1ccccc1)c1ccc2cccnc2c1O)c1ccccc1` (centres undefined) yielded an IFI of 7.69%.

`COC(=O)C1=C(C)NC2=C(C(=O)CC(c3ccc(OC)cc3)C2)C1c1ccc(F)cc1` (centres undefined) registered an IFI of 2.33%.

For `CSc1cccc(NC(=O)C2C3C=CC4(O3)C2C(=O)N(Cc2ccc(F)cc2)C4C(=O)NC2CCCC(C)C2C)c1` (centres undefined), the IFI came out at 0%.

In turn, `CCCCN(CC)S(=O)(=O)c1cc(Br)cc2c1N(C(C)=O)CC2` had an IFI of 0%.

Compound `CCOc1ccc(NC(=O)NC(Cc2c[nH]c3ccccc23)C(=O)N2CCN(C(=O)NC(C)C)C(C)C2)cc1` (centres undefined) gave an IFI of 0.935%.

As to `Cc1ccc(C)c(Nc2nc(NCc3ccco3)c3ccccc3n2)c1`, the IFI was found to be 6.45%.

Compound `O=C(O)CCNc1ccccc1[N+](=O)[O-]` had an IFI of 0%.

With `CCN1CCCC1CNC(=O)CN1N=C(c2ccccc2)Cn2c(cc3ccccc32)C1=O` (centres undefined), the IFI is 0%.

Take `CCCCN(C)Cc1cc(-c2cccc(OC)n2)ccc1O`: the IFI was 3.42%.

`Cc1ccc(O)c(NC(=O)c2cnn3c(C(F)(F)F)cc(-c4ccccc4)nc23)c1` had an IFI of 0%.

Turning to `Cc1ccc(N2C3c4ccccc4N(S(=O)(=O)c4ccc(C)cc4)C2c2ccccc2N3S(=O)(=O)c2ccc(C)cc2)cc1`, the IFI was determined as 0%.

`CCN1C=CC(=Cc2ccc3ccccc3[n+]2C)C=C1`: the IFI is 3.08%.

As for `O=C(Nc1ccc2c(c1)S(=O)(=O)c1cc(NC(=O)c3cccs3)ccc1-2)c1cccs1`, the IFI is 3.79%.

As to `CCOC(=O)C1=C(C)NC2=C(C(=O)CC(c3ccc(OC)c(OC)c3)C2)C1c1ccccc1C` (centres undefined), the IFI was 5.88%.

Take `O=C1c2ccccc2C(=O)C12C(c1ccc(Br)cc1)N(c1ccccc1)C1(C(=O)c3ccccc3C1=O)C2c1ccc(Br)cc1` (centres undefined): the IFI stood at 0%.

As to `C[n+]1c2ccccc2nc2ccc(NC3CCCCC3N)cc21` (centres undefined), the IFI was found to be 23.1%.

For `O=C(NCc1ccccc1)c1cnc(NCCCn2ccnc2)nc1NC1CCCC1`, the IFI is 0.971%.

In turn, `OC(CNCC1COc2ccccc2O1)c1ccccc1` (centres undefined) showed an IFI of 1.5%.

In turn, `N#Cc1c2c(c(N3CCN(CCO)CC3)n3c1nc1ccccc13)CCC2` showed an IFI of 2.33%.

Compound `CN(CCCNc1ccnc2cc(Cl)ccc12)C(=O)C(C)(C)C` registered an IFI of 1.87%.

Turning to `CC(C)CN1C(=O)c2ccccc2C(C(=O)Nc2cc(F)ccc2F)C1c1cccs1` (centres undefined), the IFI is 6.45%.

Compound `CC(=O)N(C1=C(N(C)C)C(=O)c2ccccc2C1=O)c1ccc(F)cc1` had an IFI of 31.1%.

Turning to `CCOc1cc(C(Nc2cc(C)ccn2)c2ccc3cccnc3c2O)ccc1OCc1ccccc1` (centres undefined), the IFI is 7.14%.

Consider `CCN(CC)c1ccc2c(c1)OC(N)=C(C#N)C2c1ccsc1` (centres undefined), for which the IFI was 9.09%.

`Cc1ccc(NC(=S)NCCO)cc1C` had an IFI of 3.03%.

Consider `CC(=O)Nc1ccc2c(c1)C(=O)N(C(C(=O)NCC(=O)O)C1CC1)[C@@H](CCC(=O)O)C(=O)N2` (some centres undefined), for which the IFI worked out at 1.24%.

As for `CCOC(=O)c1cnc2cc(OCC(C)C)c(OCC(C)C)cc2c1O`, the IFI is 0.649%.

Take `COCC(=O)N(C)CCCNc1ccnc2cc(Cl)ccc12`: the IFI worked out at 0.935%.

Turning to `CCN1C(C)=C(C)S/C1=C\c1ccc2cc(C)ccc2[n+]1C`, the IFI stood at 11.4%.

For the compound `COc1ccccc1N1CCN(c2ccc(NC(=O)c3cccc(F)c3)cc2C(=O)N2CCCC2)CC1`, the IFI amounted to 0.917%.

For `O=C(/C=C/c1ccc(-c2cccc([N+](=O)[O-])c2)o1)Nc1nccs1`, the IFI was found to be 0%.

Consider `C[n+]1c(/C=C\c2ccc(F)cc2)ccc2ccccc21`, for which the IFI turned out to be 3.49%.

The compound `COC(=O)c1ccc(N(C(=O)Cc2c[nH]c3ccccc23)C(C(=O)NC2CCCCC2)c2ccccc2F)cc1` (centres undefined) returned an IFI of 5.46%.

Regarding `COc1ccc2nc(C)cc(Nc3ccc(Cl)c(Cl)c3)c2c1`, the IFI turned out to be 11.9%.

`CC1(C)C2C[C@@H](COC(=O)NC(=O)c3ccccc3)[C@]3(C)[C@H](C21)C3(Cl)Cl` (some centres undefined) came in with an IFI of 0%.

Take `O=C(Nc1ccccc1)/C(=C\c1ccncc1)NC(=O)c1ccccc1`: the IFI stood at 0%.

Compound `CN(CCCNc1ccnc2cc(Cl)ccc12)C(=O)C(Cl)Cl` came in with an IFI of 3.7%.

In the case of `CCOC(=O)c1cn(CC)c2cc(N(C)CCc3ccc(OC)c(OC)c3)c(F)cc2c1=O`, the IFI stood at 4.69%.

Take `O=C(NN=Cc1cc2ccccc2cc1O)c1cccnc1`: the IFI was 7.14%.

In turn, `COc1cc2c(cc1/C=C(/C#N)c1cccc(C)c1)OCO2` displayed an IFI of 0%.
